According to PubChem BioAssay AID624296 (National Center for Advancing Translational Sciences (NCATS), 2012):
In all, about 350,000 compounds went through this assay and about 9,900 (2.8%) were called active. Inconclusive results, whose numbers are uncertain, are shown with a selection of clear calls. Calls come from the whole dose curve; as a rule, active = well fitted activation curve with a large enough effect; inconclusive = small, poorly fitted or top-dose-only effect; inactive = no such curve, though single readings can be large or run the other way. Potencies of inconclusive entries are left out as doubtful fits.

test: A quantitative high throughput screen for small molecules that induce DNA re-replication in MCF 10a normal breast cells.; note: nearly all actives have a fitted effect of over 50% in size; settings: MCF 10A DNA re-replication, Hoechst nuclear intensity, 48 h; series mostly up to 46.1 µM
Potency is the fitted concentration of half-maximal effect; tags give direction and shape of the fitted curve.

Row | Structure (SMILES) | Potency
1 | Clc1cccc(Cl)c1/C=N/Nc1c(Cl)cncc1Cl | active: 2.59 µM
2 | CC1=CC2=NC(=O)CC(C)(C(=O)N(CC(=O)NC3CCCC3)Cc3ccc(Cl)cc3)N2C=C1 (stereo not drawn) | inconclusive [activator, single point]
3 | CN(CC(=O)Nc1ccc(Cl)c(C(F)(F)F)c1)C(=O)C1CCN(C(=O)c2ccc(Cl)cc2)CC1 | inconclusive [activator, partial curve]
4 | Cc1ccc(-c2nn(-c3cccc(F)c3)cc2CNCCc2ccncc2)o1 | inconclusive [activator, single point]
5 | CCOC(=O)c1c(SCCN2CCCCC2)n(-c2ccccc2)c(=S)n(-c2ccccc2)c1=O | active: 9.2 µM
6 | Cc1ccc(C(=O)c2cc([N+](=O)[O-])ccc2N2CCCCC2)cc1 | inconclusive [activator, full curve, poor fit]
7 | CCN(CC)c1nc(C(F)(F)F)nc2c1nnn2Cc1ccccc1 | inactive
8 | O=C1C2C3C=CC(C4CC34)C2C(=O)N1/N=C/c1ccc(-c2cccc([N+](=O)[O-])c2)o1 (stereo not drawn) | inactive
9 | CC(C)[C@@H]1N[C@]2(C(=O)Nc3ccccc32)[C@@H]2C(=O)N(c3cccc(C(F)(F)F)c3)C(=O)[C@@H]21 | inconclusive [activator, partial curve, poor fit]
10 | Cc1cccc(NC(c2ccc(O)cc2)c2ccc3ccc(C)nc3c2O)n1 (stereo not drawn) | inconclusive [activator, single point]
11 | Cc1ccc2c(c1)c1c3n2CCN(C(=O)CCl)C3CCC1 (stereo not drawn) | inconclusive [activator, single point]
12 | O=C(COC(=O)CCC(=O)c1cccs1)Nc1ccccc1[N+](=O)[O-] | inconclusive [activator, partial curve, poor fit]
13 | CC(C)C(c1nnnn1C(C)(C)C)N1CCN(c2cccc(Cl)c2)CC1 (stereo not drawn) | inconclusive [activator, partial curve, poor fit]
14 | C(#Cc1ccccc1)CN1CCCCC1 | inactive
15 | CC(C)[C@H](NS(=O)(=O)c1cccc(Cl)c1)C(=O)OCC(=O)N1CCN(c2ccccc2)CC1 | inactive
16 | CCCCN(C)CCNC(=S)Nc1ccc2nc(N3CCN(CC)CC3)cc(C)c2c1 | inconclusive [activator, single point]
17 | CSc1ccc(S(=O)(=O)NCC(=O)OCC(=O)N2CCCC2=O)cc1[N+](=O)[O-] | inconclusive [activator, single point]
18 | COc1cc(/C=C/C(C)=NNc2ccccc2)ccc1O | active: 16.4 µM
19 | O=C(c1ccc(F)cc1)N1CCN(c2ccc([N+](=O)[O-])cc2-n2cccc2)CC1 | inactive
20 | Cc1[nH]c2ccccc2c1SCCN | inactive
21 | O=C(CN1C(=O)NC2(CCc3ccccc32)C1=O)Nc1ccc(Br)cc1F (stereo not drawn) | inactive
22 | COc1ccc(N2CCN(C(=O)C3CCN(C(=O)c4cccc(Cl)c4)CC3)CC2)cc1 | inconclusive [activator, single point]
23 | CC(=O)Oc1ccc(-c2cccc(C(=O)OCC(=O)N(C)c3ccccc3)c2)cc1 | inactive

Row | Structure (SMILES) | Potency
24 | O=C(Nc1nc(-c2cccnc2)cs1)c1ccccc1[N+](=O)[O-] | inactive
25 | COc1ccccc1NC(=O)C1CCCN1S(=O)(=O)c1ccc(Cl)cc1 (stereo not drawn) | active: 18.4 µM
26 | O=c1c(-c2ccc(O)cc2)coc2cc(OC3OC(CO)C(O)C(O)C3O)ccc12 (stereo not drawn) | inactive
27 | CC(C)Oc1ccc(S(=O)(=O)N2CCOCC2)cc1NC(=O)c1cc([N+](=O)[O-])ccc1N1CCOCC1 | inactive
28 | CC(C)NC(=O)N(C)C[C@H]1Oc2c(cccc2N(C)C)C(=O)N([C@H](C)CO)C[C@@H]1C | inactive
29 | CCCCCOC(=O)C1=C(C)Nc2nnnn2C1c1ccccc1Cl (stereo not drawn) | inconclusive [activator, single point]
30 | O=C(NC1CCN(Cc2ccccc2)CC1)c1ccc(Cn2c(=S)[nH]c3ccc(N4CCOCC4)cc3c2=O)cc1 | inconclusive [activator, single point]
31 | Cc1c(C(=O)NC(C)C)oc2c1-c1[nH]ncc1CC2 | inactive
32 | CCCSc1nnc(NC(=O)c2nc(SC)ncc2Cl)s1 | inactive
33 | CC(C)(C)OC(=O)NCCCCCc1cn([C@@H](CO)C(=O)NCCCCCCCCCCC(=O)N2CCN(C(=O)OC(C)(C)C)CC2)nn1 | inconclusive [activator, full curve]
34 | COC(=O)c1c(C(C)=O)c(C)n(C)c1C | inactive
35 | CC(=O)Nc1ccc(NC(=O)COC(=O)c2c3c(nc4ccccc24)CCN(Cc2ccccc2)C3)cc1 | inconclusive [activator, single point]
36 | CCCCc1nc2n[nH]c(N)c2c2c1CCCC2 | inconclusive [activator, partial curve, poor fit]
37 | CC(C)C(NC(=O)c1ccccc1Br)c1ccccc1 (stereo not drawn) | inactive
38 | CCOc1ccc(Oc2ccc(NC(=O)CSc3nncn3C)cc2)cc1 | inconclusive [activator, partial curve, poor fit]
39 | COc1ccc(-c2cc(C(F)F)n3ncc(C(=O)N4CCSCC4)c3n2)cc1 | inconclusive [activator, partial curve]
40 | O=C(COC(=O)c1c2ccccc2cc2ccccc12)NCC(F)(F)F | inconclusive [activator, single point]
41 | COc1cccc(CNS(=O)(=O)c2ccc3c(c2)CCN3C(=O)C2CC2)c1 | inconclusive [activator, single point]
42 | CCCc1c(-c2ccc(O)cc2)nn(-c2ccc(O)cc2)c1-c1ccc(O)cc1 | inconclusive [activator, single point]
43 | O=C(Nc1ccccc1N1CCN(c2ccc(F)cc2)CC1)C12CC3CC(CC(C3)C1)C2 | inconclusive [activator, full curve, poor fit]
44 | Cc1ccc2nc(C)c(C(=O)NN=C3CCN(C)CC3)n2c1 | inconclusive [activator, single point]
45 | COC(=O)c1c(C)[nH]c(C(=O)C(C)OC(=O)c2c(C)noc2C)c1C (stereo not drawn) | inactive
46 | O=C(Nc1ccc(Nc2ccccc2)cc1)Nc1ccccc1Cl | inconclusive [activator, single point]

Row | Structure (SMILES) | Potency
47 | Nc1c(C(=O)NC2CC2)c2nc3ccccc3nc2n1-c1ccc2c(c1)OCO2 | active: 2.91 µM
48 | CCOC(=O)C(C(=O)OCC)C(Nc1ccc(Br)cc1)c1ccccc1 (stereo not drawn) | inconclusive [activator, single point]
49 | C#CCOCCOCCOCCNc1nc(N2CCN(C(=O)[C@H]([C@@H](C)CC)n3cc(CCC(=O)O)nn3)CC2)nc(N2CCN(C(=O)[C@H](CCCCN)n3cc(CC(C)O)nn3)CC2)n1 (stereo partly drawn) | inactive
50 | CS(=O)(=O)c1ccc2sc(NC(=O)c3cc4ccccc4o3)nc2c1 | inactive
51 | COc1cccc(-n2c(C)c3c(OC)cccc(=O)c3c2C)c1 | inconclusive [activator, single point]
52 | Cc1ccc(S(=O)(=O)N(C)C[C@@H]2Oc3ccc(NC(=O)Nc4cccc5ccccc45)cc3C(=O)N([C@H](C)CO)C[C@H]2C)cc1 | inconclusive [activator, single point]
53 | O=C(NCc1cccnc1)/C(=C\c1ccc(-c2cccc(Cl)c2)o1)S(=O)(=O)c1ccccc1 | active: 7.31 µM
54 | CCC(C)c1ccccc1NC(=O)c1cc(C)no1 (stereo not drawn) | inactive
55 | CCOC(=O)C(C)Oc1ccc(NC(=O)C(Cl)Cl)cc1 (stereo not drawn) | inconclusive [activator, single point]
56 | Cn1c(=O)c2[nH]c(Cc3cccc(O)c3)nc2n(C)c1=O | inconclusive [activator, single point]
57 | CCOc1ccc(CCNC(=O)c2ccc(CS(=O)Cc3cccc(Cl)c3)o2)cc1 (stereo not drawn) | inactive
58 | O=C(NCCc1ccc2c(c1)OCCO2)c1ccc(F)cc1 | inactive
59 | CCC(=O)Nc1nc(-c2ccccc2)nc(SC)c1C(C)=O | inconclusive [activator, single point]
60 | CCOC(=O)c1c(NC(=O)C2COc3ccccc3O2)sc2c1CC(C)(C)NC2(C)C (stereo not drawn) | inconclusive [activator, single point]
61 | C[C@H]1CN(S(=O)C(C)(C)C)[C@@H](CCO)/C1=C\CCO (stereo partly drawn) | inconclusive [activator, single point]
62 | CC(C)C1OC2c3cccc4cccc(c34)C2N1c1ccccc1 (stereo not drawn) | inconclusive [activator, partial curve, poor fit]
63 | CCN(CC(=O)NCc1ccc(Cl)cc1)C(=O)c1cc(S(=O)(=O)NCc2ccccc2)ccc1C | inconclusive [activator, partial curve, poor fit]
64 | CCCN(CCC)S(=O)(=O)c1ccc(C(=O)Nc2nnc(COC)o2)cc1 | inactive
65 | COc1ccc(-c2sc(Nc3ccccc3)n[n+]2C)c(C)c1C | inconclusive [activator, partial curve, poor fit]
66 | C[C@@H](C(=O)NCc1ccccn1)[C@H]1C[C@]1(C)[C@H](NC(=O)OCc1ccccc1)c1ccccc1 | active: 20.6 µM
67 | CC1CCN(CCCCOc2ccccc2[N+](=O)[O-])CC1 | inconclusive [activator, full curve, poor fit]
68 | COc1cc(C(=S)N2CCOCC2)cc(OC)c1OC(=O)c1ccc(C)cc1 | inconclusive [activator, single point]
